Source: patent US20250223340A1 (BIOTHEUS, published 2025)

Experiments:
cynomolgus serum albumin = target: T1, cynomolgus serum albumin (cynomolgus); test: BLI (ForteBio), VHH-Fc on AHQ sensor, 1:1 model
T1 construct: Bought reagent; also called CSA

mouse serum albumin = target: T2, mouse serum albumin (mouse, UniProt P07724 25-608); test: BLI (ForteBio), VHH-Fc on AHQ sensor, 1:1 model
T2 construct: Bought reagent; also called MSA

human serum albumin [1] = target: T3, human serum albumin (human, UniProt P02768); test: BLI (ForteBio), VHH-Fc on AHQ sensor, pH 5.5
T3 construct: Bought reagent; also called HSA; HSA antigen

human serum albumin [2] = target: T3, human serum albumin; test: BLI (ForteBio), VHH-Fc on AHQ sensor, pH 6.5
human serum albumin [3] = target: T3, human serum albumin; test: BLI (ForteBio), VHH-Fc on AHQ sensor, 100 nM antigen, 1:1 model
human serum albumin [4] = target: T3, human serum albumin; test: BLI (ForteBio), VHH-Fc on AHQ sensor, pH 7.4

Kd (cynomolgus serum albumin)	koff (cynomolgus serum albumin)	kon (cynomolgus serum albumin)	Kd (mouse serum albumin)	koff (mouse serum albumin)	kon (mouse serum albumin)	Kd (human serum albumin [1])	koff (human serum albumin [1])	kon (human serum albumin [1])	Kd (human serum albumin [2])	koff (human serum albumin [2])	kon (human serum albumin [2])	Kd (human serum albumin [3])	koff (human serum albumin [3])	kon (human serum albumin [3])	Kd (human serum albumin [4])	koff (human serum albumin [4])	kon (human serum albumin [4])	Binder
12.5 nM	0.00373 s⁻¹	298000 M⁻¹ s⁻¹	29.5 nM	0.00711 s⁻¹	241000 M⁻¹ s⁻¹	9.53 nM	0.00166 s⁻¹	174000 M⁻¹ s⁻¹	14.4 nM	0.002 s⁻¹	139000 M⁻¹ s⁻¹	52.8 nM	0.00627 s⁻¹	119000 M⁻¹ s⁻¹	23 nM	0.00303 s⁻¹	132000 M⁻¹ s⁻¹	Hu-HSA-PH-8-5 (Fc fusion, Humanized from HSA-PH-8) QVQLVESGGGLVQPGGSLRLSCSASGSIWGIYHMGWYRQAPGKQRELVASITVDGSTHYADTVKGRFTISRDNSKNTLYLQMNSLEPEDTAVYYCDIRNVGGDYWGQGTQVTVSS[sequence of human IgG1 Fc with changes omitted]
40.4 nM	0.0153 s⁻¹	378000 M⁻¹ s⁻¹	7.79 nM	0.00393 s⁻¹	505000 M⁻¹ s⁻¹	29.9 nM	0.00547 s⁻¹	183000 M⁻¹ s⁻¹	14.3 nM	0.00281 s⁻¹	196000 M⁻¹ s⁻¹	52 nM	0.00715 s⁻¹	138000 M⁻¹ s⁻¹	50.4 nM	0.00836 s⁻¹	166000 M⁻¹ s⁻¹	Hu-HSA-M-27-1 (Fc fusion, Humanized from HSA-M-27) EVQLLESGGGLVQPGGSLRLSCAASGFTLDYYAIGWFRQAPGKEREGVSCIASSGGSTNYADSVKGRFTISRDNSKNTVYLQMNSLKPEDTAVYYCAAAVLECRTVVRGYDYWGQGTQVTVSS[sequence of human IgG1 Fc with changes omitted]
66.2 nM	0.0185 s⁻¹	280000 M⁻¹ s⁻¹	10.4 nM	0.00386 s⁻¹	373000 M⁻¹ s⁻¹	44.4 nM	0.00478 s⁻¹	108000 M⁻¹ s⁻¹	91.5 nM	0.00786 s⁻¹	86000 M⁻¹ s⁻¹	159 nM	0.013 s⁻¹	82200 M⁻¹ s⁻¹	163 nM	0.0113 s⁻¹	69300 M⁻¹ s⁻¹	Hu-HSA-59-1 (Fc fusion, Humanized from HSA-59) EVQLLESGGGLVQPGGSLRLSCAASGFTLDYYAIGWFRQAPGKEREEVSCISSSGGSTNYADSVKGRFTISRDNSKNTVYLQMNSLKPEDTAVYYCAAALLECRVRSWPSDNWGQGTQVTVSS[sequence of human IgG1 Fc with changes omitted]
